# Results from the supplement of paper PMC3334620.
# Over roughly 33,000 sequences, “E-score (-0.5 to 0.5)” has its median near -0.041; the highest 2% begin near 0.37. Some of the results follow.
# Biological target: T1, Ecm22 (UniProt Q05958)
# T1 sequence: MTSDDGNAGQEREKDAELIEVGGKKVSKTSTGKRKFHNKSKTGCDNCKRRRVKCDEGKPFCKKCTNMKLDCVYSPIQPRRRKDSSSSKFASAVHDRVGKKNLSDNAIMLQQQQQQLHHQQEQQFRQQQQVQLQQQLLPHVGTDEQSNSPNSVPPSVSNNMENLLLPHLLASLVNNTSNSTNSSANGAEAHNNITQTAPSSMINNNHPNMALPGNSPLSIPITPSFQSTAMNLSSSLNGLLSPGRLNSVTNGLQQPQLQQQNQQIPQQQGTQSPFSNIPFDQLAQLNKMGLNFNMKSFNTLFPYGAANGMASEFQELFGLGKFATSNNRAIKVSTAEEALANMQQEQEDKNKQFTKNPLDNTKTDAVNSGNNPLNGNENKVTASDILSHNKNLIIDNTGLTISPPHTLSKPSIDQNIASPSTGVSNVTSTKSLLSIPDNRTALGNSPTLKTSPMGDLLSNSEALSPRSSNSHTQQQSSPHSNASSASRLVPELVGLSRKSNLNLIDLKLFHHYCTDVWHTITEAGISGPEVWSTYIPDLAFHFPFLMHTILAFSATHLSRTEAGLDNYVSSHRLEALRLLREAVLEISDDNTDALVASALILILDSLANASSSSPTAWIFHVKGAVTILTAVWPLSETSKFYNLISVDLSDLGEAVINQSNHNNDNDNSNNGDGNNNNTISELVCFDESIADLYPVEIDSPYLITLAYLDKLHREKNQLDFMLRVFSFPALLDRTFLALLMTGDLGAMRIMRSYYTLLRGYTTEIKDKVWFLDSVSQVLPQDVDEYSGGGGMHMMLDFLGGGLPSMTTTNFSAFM
# Experiment: PBM E-score (8-mer binding enrichment) (E-score (-0.5 to 0.5)); higher = stronger / more preferred TF binding; most listed sequences are background and not binding sites
# Details: protein concentration: 200 nM; construct: GST-full length
# Description: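 Universal 'all 10-mer' protein binding microarrays (Agilent AMADID 015681) probed with GST-tagged S. cerevisiae TFs (full-length or DBD) made by in vitro transcription/translation (PURExpress), about 100-200 nM. Bound TF was detected with fluorescent anti-GST. Each ungapped 8-mer (which stands for itself and its reverse complement) is scored by the PBM enrichment score (E-score), a modified Wilcoxon-Mann-Whitney statistic from -0.5 to +0.5, computed with the Universal PBM Analysis Suite. Scale: above 0.35 generally sequence-specific binding.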
row,Sequence,PBM E-score
1,GCTCAACC,-0.0868
2,AAGAGAAA,-0.221
3,AGTAAGAA,-0.0334
4,GTTAAAGA,0.0605
5,AATCAGGC,-0.211
6,GATTGAGC,0.0976
7,ACCCTCCT,-0.209
8,CAGTAGCA,0.00647
9,ATGGCGAG,-0.0404
10,CAGCCGTA,0.27
11,ACGTACGA,0.441
12,AGTATGGA,-0.115
13,AGCCCGTG,-0.0881
14,CACGATGA,0.19
15,GGGCCGGA,-0.107
16,GGTGCAAA,-0.0673
17,ATACCAGA,-0.0074
18,ACCAGACG,-0.112
19,ACAGAGGG,-0.13
20,ATTGTATC,-0.0265
21,CCCCAGGC,-0.326
22,ATCAACCG,-0.0038
23,CTCACGGA,-0.119
24,ATTGGGAC,-0.192
25,ACACTGCC,-0.0292

row,Sequence,PBM E-score
1,GTGAATAA,-0.162
2,ATGCTTTG,-0.128
3,AGACACAA,-0.272
4,CGTAAAAA,0.404
5,AGGACCCT,-0.235
6,ATAATTAT,0.311
7,CCTCTACC,-0.222
8,ATAAATGC,-0.164
9,CTTGTGCC,-0.148
10,ACCTTTCT,-0.00148
11,GGGATTAC,-0.077
12,GTCATCCA,-0.259
13,ATTCGGCC,-0.0473
14,TATGCATA,-0.287
15,TGGTTAAA,0.0541
16,CTCAGAGA,-0.116
17,CATTTAGA,-0.0541
18,ACTTTCCA,-0.205
19,CGCACATC,0.154
20,CTCTCGTC,0.0625
21,ATATCGTG,0.147
22,AATGGCCG,-0.129
23,AAGGAACA,-0.175
24,GAAGTGCC,-0.0811
25,ACCATTCC,-0.0508

row,Sequence,PBM E-score
1,ACGGACAG,0.0603
2,GAGCCGGA,-0.0216
3,AGCAAGGG,-0.15
4,CTTTGTAA,0.0224
5,AAAGAACG,0.232
6,AACGTACC,0.297
7,CGTTGGAA,0.0549
8,AGTAACCG,0.109
9,CCTCCCCA,-0.196
10,AACATTGC,-0.111
11,CGTAGGGA,-0.0369
12,AACTCAGC,-0.175
13,CAATGAAA,-0.155
14,ATAGTGTA,-0.0539
15,GGGATACC,-0.115
16,CACAAGAA,-0.0424
17,AAGCAAAC,0.204
18,AGTTTTCA,-0.0527
19,AAGCTTCT,0.0794
20,AGGATGGG,0.0518
21,ACGCGAGT,0.241
22,GGTCGACA,0.0742
23,CATAGCAG,-0.207
24,AGGTCTAG,-0.112
25,AGATATAG,0.0596

row,Sequence,PBM E-score
1,GATACCAC,-0.0172
2,ACGAGCTC,0.39
3,TGTCTGAA,-0.0279
4,ATCTTATA,0.128
5,CCCAGATA,-0.266
6,ATTGACCG,0.089
7,CAACGCGG,0.0446
8,ACAGCCGC,-0.132
9,ACCATTCA,-0.291
10,GGTGCGAA,0.275
11,TCGACACA,0.0861
12,ATAGAGTA,0.0185
13,GAACACGA,0.156
14,ACAAGCCG,-0.0164
15,AAGATAGT,0.0345
16,GGTTCAAC,0.143
17,GGGGCGTA,0.0407
18,CACTACCG,-0.224
19,CCGGCTGA,-0.0516
20,ACTTTGTC,-0.00755
21,CCAGCTCA,-0.144
22,CCAAGCCA,-0.169
23,TCGTACAA,0.49
24,AAGAAAAG,-0.233
25,CACTACTG,-0.283

row,Sequence,PBM E-score
1,GAAGGCCA,-0.246
2,AATAACAA,-0.0956
3,CTGCCCCA,-0.065
4,ATCGGGTG,0.0998
5,ATACACGC,0.0228
6,GAAACTAA,-0.0632
7,GCTATGAA,-0.0335
8,AACACAAT,-0.00044
9,GTCCAGTA,-0.113
10,ATTGTACG,0.431
11,AATGTGCT,0.00418
12,TCCGGTCA,-0.0673
13,CTGGCATC,-0.132
14,ACGCTTTC,-0.159
15,AGGGCCTA,-0.26
16,AAGGTATC,-0.125
17,CTATGGTC,-0.017
18,CTGGCGTA,0.0704
19,AATCCGCA,-0.0374
20,ACCCCGAT,-0.185
21,AGCTTTCA,-0.154
22,AATGGCCA,-0.223
23,CAAACAGC,-0.0683
24,AGCGTCGA,0.0362
25,AAGTGCTA,-0.145

row,Sequence,PBM E-score
1,GGTTGGAC,-0.241
2,CGACGGTC,0.193
3,AAGGGAGA,-0.212
4,CAAACAAA,0.0404
5,TGGCTACA,0.134
6,CACCTTGC,-0.0519
7,GCTGCATA,-0.114
8,CTCATCAC,-0.183
9,GATCATGA,0.128
10,AAGGGCCA,-0.444
11,CGCGCAAA,0.188
12,TCCACTAA,-0.0495
13,ACTCCTAA,-0.103
14,CTGGGTAA,-0.00727
15,CGCCCGAG,-0.0794
16,ATAACATA,0.157
17,ACTGCGTA,0.132
18,TCCATGGA,-0.0517
19,GAGATAGA,0.00065
20,GGCCTCTA,-0.138
21,TAGTGTAA,-0.0408
22,ATCAAGTG,-0.307
23,AAATGCAC,-0.0425
24,TATGCCCA,-0.146
25,CCATATTA,0.0759

row,Sequence,PBM E-score
1,AGGAGTTC,-0.0909
2,AACTTCAG,-0.0831
3,GGTTGAAA,-0.188
4,AAGTGTAC,0.095
5,CGCAAACC,0.227
6,GTGATTGA,-0.0833
7,CCCATGTA,-0.213
8,CGCGAGAC,0.27
9,AGGCATGC,-0.155
10,AAACCCGA,0.279
11,AAGGAAGA,-0.159
12,ACCTGCTG,-0.238
13,ACTCGACT,-0.14
14,GACTTCTA,-0.159
15,AGGCAGAC,-0.205
16,CCTGAACA,-0.102
17,GAGCCCAC,-0.0418
18,ACGGTGGA,0.123
19,AGTGAAAT,-0.184
20,CCTAAGTC,-0.235
21,CCTCTAAG,-0.294
22,CTGGCCTC,-0.0267
23,GGGCGTAA,-0.0459
24,AGCTTATA,-0.0588
25,ACTTCACC,0.0335

row,Sequence,PBM E-score
1,CCCTGAGC,-0.127
2,ACCATCAG,-0.095
3,CATTGGAA,-0.122
4,CGGGGGAC,-0.248
5,AATCTCCA,-0.162
6,CAAAGTAG,-0.0816
7,ACTATAGG,-0.122
8,CAAGGTAC,0.163
9,CATGTCTC,-0.0657
10,CGATAAGA,0.00213
11,ATAATTGC,-0.0903
12,CAACGTAA,0.13
13,CGTCTGAG,0.106
14,GGTGGCAA,-0.192
15,AGAGTTGG,-0.25
16,ATACGTAC,0.342
17,AAGAAGTG,-0.0385
18,ATTACAGA,0.159
19,CGTTCATC,0.354
20,CTATATTA,0.0735
21,CCCATAGC,-0.254
22,ATGACCCA,-0.168
23,CCAAATTC,-0.0263
24,AGGGGACA,-0.219
25,ATTGTAGG,0.00729

row,Sequence,PBM E-score
1,CCCTGGAG,-0.128
2,CCCCCGTA,0.26
3,GTCGGGAA,0.231
4,CGGGCAAG,-0.131
5,TACTTCAA,-0.0609
6,CTACTGAA,-0.155
7,CCTACCTC,-0.0998
8,GCGTTGCA,-0.066
9,AAAGCCTG,-0.228
10,TAGGCCTA,-0.1
11,GCCTCGAA,0.0731
12,ATAGGGAC,-0.18
13,CTGAATTC,-0.173
14,CCTAGAAG,-0.187
15,ACTCTGGA,0.0205
16,AGGCTTCA,-0.158
17,ATGTTCCA,-0.0643
18,ACTGGAGG,-0.275
19,GCCGCGCC,-0.236
